Article PMC4336329 (PLoS ONE, 2015)
Out of some 310,000 compounds screened, about 2,200 (0.71%) showed an effect of 50% or more. Effects have a minus sign here. The list shows a part of the results.

Each compound was assayed against human ether-à-go-go-related gene (hERG) potassium channel (human, UniProt Q12809) (assay: primary screen, population patch clamp on CHO cells stably expressing hERG).
human ether-à-go-go-related gene (hERG) potassium channel, sequence (Q12809 whole entry, looked up): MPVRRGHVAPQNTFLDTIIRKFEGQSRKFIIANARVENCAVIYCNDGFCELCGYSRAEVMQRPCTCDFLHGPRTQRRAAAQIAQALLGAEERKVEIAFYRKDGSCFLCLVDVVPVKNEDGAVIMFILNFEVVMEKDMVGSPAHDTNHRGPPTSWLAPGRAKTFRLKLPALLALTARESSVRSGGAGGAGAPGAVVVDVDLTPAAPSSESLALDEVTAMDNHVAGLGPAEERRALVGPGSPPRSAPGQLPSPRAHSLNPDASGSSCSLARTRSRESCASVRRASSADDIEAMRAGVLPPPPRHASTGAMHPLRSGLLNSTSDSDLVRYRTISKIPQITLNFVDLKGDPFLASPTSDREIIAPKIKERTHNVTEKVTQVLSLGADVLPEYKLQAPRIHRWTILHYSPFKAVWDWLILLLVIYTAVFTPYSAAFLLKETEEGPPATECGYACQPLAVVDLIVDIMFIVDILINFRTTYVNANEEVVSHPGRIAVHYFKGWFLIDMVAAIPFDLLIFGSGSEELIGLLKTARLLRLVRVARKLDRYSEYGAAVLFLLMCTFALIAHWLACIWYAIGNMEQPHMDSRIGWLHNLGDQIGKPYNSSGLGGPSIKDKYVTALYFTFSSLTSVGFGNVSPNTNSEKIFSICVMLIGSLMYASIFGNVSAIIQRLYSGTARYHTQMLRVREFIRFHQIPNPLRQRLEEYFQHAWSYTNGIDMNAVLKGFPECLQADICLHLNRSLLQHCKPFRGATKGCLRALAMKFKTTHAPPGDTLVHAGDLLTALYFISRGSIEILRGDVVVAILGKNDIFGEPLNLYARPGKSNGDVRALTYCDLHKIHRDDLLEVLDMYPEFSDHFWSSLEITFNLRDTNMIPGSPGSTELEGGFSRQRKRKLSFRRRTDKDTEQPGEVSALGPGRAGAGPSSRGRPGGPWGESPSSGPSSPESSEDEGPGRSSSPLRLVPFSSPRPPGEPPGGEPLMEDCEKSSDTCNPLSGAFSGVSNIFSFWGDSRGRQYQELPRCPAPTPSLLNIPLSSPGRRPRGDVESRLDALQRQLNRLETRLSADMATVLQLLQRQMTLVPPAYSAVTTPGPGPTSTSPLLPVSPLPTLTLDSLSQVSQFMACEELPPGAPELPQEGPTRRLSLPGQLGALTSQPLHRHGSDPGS
In the case of `O=[N+]([O-])c1ccc(S(=O)(=O)NCC(c2cccnc2)N2CCOCC2)cc1` (stereo not shown), the “hERG current change (%, negative = inhibition) at 1uM” value was 5.9%. For `CCn1c(=O)c(C(=O)CC#N)c(N)n(Cc2ccccc2)c1=O`, the “hERG current change (%, negative = inhibition) at 1uM” value was 11.2%. For `COc1ccc(C(=O)NCc2nnc(SCC(=O)NCc3ccco3)o2)cc1`, the “hERG current change (%, negative = inhibition) at 1uM” value was 12.7%. For `COc1ccc(C2Nc3ccccc3C(=O)N2c2ccccc2)cc1CN1CCOCC1` (stereo not shown), the “hERG current change (%, negative = inhibition) at 1uM” value was 7.54%. `Cn1nc(C(F)(F)F)c2cc(NC(=O)OCC(C)(C)C)sc21` was tested, and the “hERG current change (%, negative = inhibition) at 1uM” value was 7.95%. With `O=C(CCc1nnc(CCCCc2ccccc2)o1)NCCN1CCOC1=O` the “hERG current change (%, negative = inhibition) at 1uM” value was 9.65%. `CC(C)c1nc(SCC(=O)c2c[nH]c3ccccc23)n[nH]1` was tested, and the “hERG current change (%, negative = inhibition) at 1uM” value was 8.74%. For `COc1ccccc1NC(=O)CC(NC1CCCCC1)C(=O)O` (stereo not shown), the “hERG current change (%, negative = inhibition) at 1uM” value was 11.9%. With `COc1cccc(CN(C)C(=O)CSc2nc3ccccc3[nH]2)c1OC` the “hERG current change (%, negative = inhibition) at 1uM” value was 12%. `Cc1ccc2cc(C#N)c(SCc3nnc(-c4ccccc4[N+](=O)[O-])o3)nc2c1` was tested, and the “hERG current change (%, negative = inhibition) at 1uM” value was 14.9%. In the case of `Cc1cc(Cl)ccc1OCC(=O)OCC(=O)N1CCC(C(N)=O)CC1`, the “hERG current change (%, negative = inhibition) at 1uM” value was 11.6%. In the case of `Cc1cc(C)c2c(=O)[nH]c(SCC(=O)Nc3cccc(S(=O)(=O)N(C)C)c3)nc2n1`, the “hERG current change (%, negative = inhibition) at 1uM” value was -14.6%. In the case of `CC(=O)N1CCc2cc(S(=O)(=O)CCC(=O)NCc3ccco3)ccc21`, the “hERG current change (%, negative = inhibition) at 1uM” value was 14%. `CCN(CC)c1ccc(/C=C2\SC(=O)N(C(C)C)C2=O)o1` was tested, and the “hERG current change (%, negative = inhibition) at 1uM” value was 12.7%. With `O=C(N/N=C/c1ccc[nH]1)c1ccccc1O` the “hERG current change (%, negative = inhibition) at 1uM” value was 8.09%. `CCCCC(O)(CCCC)C(=O)NN(C(=O)OCC)c1ccccc1` was tested, and the “hERG current change (%, negative = inhibition) at 1uM” value was 17%. With `Fc1ccc(CSc2nncn2NCc2ccc3c(c2)OCO3)cc1` the “hERG current change (%, negative = inhibition) at 1uM” value was 7.43%. In the case of `Cc1ccc(CN(Cc2ccccc2)C(=S)NCC(=O)NCc2cccnc2)o1`, the “hERG current change (%, negative = inhibition) at 1uM” value was -14.9%. For `CN1CCC(N(C)S(=O)(=O)c2ccc(NC(=O)COc3cccc(Cl)c3)cc2)CC1`, the “hERG current change (%, negative = inhibition) at 1uM” value was -2.07%. `CC(C)(C)NC(=O)Cn1c(SCC(=O)N2CCCCCC2)nc2ccccc21` was tested, and the “hERG current change (%, negative = inhibition) at 1uM” value was 10.4%. With `O=C(CN1C(=O)NC(Cc2c[nH]c3ccccc23)C1=O)Nc1ccc(Br)cc1F` (stereo not shown) the “hERG current change (%, negative = inhibition) at 1uM” value was 9.26%. For `CCN1C(=O)CC(N2CCC(Cc3ccccc3)CC2)C1=O` (stereo not shown), the “hERG current change (%, negative = inhibition) at 1uM” value was -3.34%. `Cc1ccc(C)c(N2CCN(S(=O)(=O)c3cn(C)cn3)CC2)c1` was tested, and the “hERG current change (%, negative = inhibition) at 1uM” value was 0.309%. In the case of `CCc1nc(SCC#N)c(C#N)cc1C`, the “hERG current change (%, negative = inhibition) at 1uM” value was 1.15%. In the case of `CCC(=O)N(C)CCc1cc2c(c(OC)c1/C=N/NC(=O)c1ccc(Br)cc1)OCO2`, the “hERG current change (%, negative = inhibition) at 1uM” value was 0.468%. `Cc1nc(NC(=O)c2ccc(OCC(C)C)cc2)sc1Cc1ccc2c(c1)OCO2` was tested, and the “hERG current change (%, negative = inhibition) at 1uM” value was 12.4%. With `COc1cccc(C2C(C(N)=O)=C(C)Nc3nc(-c4ccccc4Cl)nn32)c1` (stereo not shown) the “hERG current change (%, negative = inhibition) at 1uM” value was 5.59%. `CC(OC(=O)c1ccccc1O)C(=O)Nc1cccc(Cl)c1` (stereo not shown) was tested, and the “hERG current change (%, negative = inhibition) at 1uM” value was 7.22%. In the case of `O=[N+]([O-])c1ccc(N2CCOCC2)cc1NCc1ccccc1`, the “hERG current change (%, negative = inhibition) at 1uM” value was 4.41%. With `N#Cc1c(N)nc2c3c(sc(=N)c2c1N)NC(=O)CC3c1c(F)cccc1Cl` (stereo not shown) the “hERG current change (%, negative = inhibition) at 1uM” value was -2.06%. With `O=C(CCSCc1ccccc1Cl)NC1CCCC1` the “hERG current change (%, negative = inhibition) at 1uM” value was 8.88%. For `O=C(Nc1nc2n(n1)C(c1ccc(F)cc1)CC(c1ccccc1)N2)c1ccco1` (stereo not shown), the “hERG current change (%, negative = inhibition) at 1uM” value was 2.83%. For `Cc1nc2sc(C)c(C)c2c(=O)o1`, the “hERG current change (%, negative = inhibition) at 1uM” value was 8.39%. For `COCCNC(=O)CN1C2CCC1CC(O)(c1cccnc1)C2` (stereo not shown), the “hERG current change (%, negative = inhibition) at 1uM” value was 11.1%. `CCC(=O)N1N=C2CC(C)(C)OCC2C1c1ccccc1` (stereo not shown) was tested, and the “hERG current change (%, negative = inhibition) at 1uM” value was 11.7%. In the case of `O=C(CSc1ccc2nnc(-c3ccccn3)n2n1)Nc1ccc2c(c1)OCO2`, the “hERG current change (%, negative = inhibition) at 1uM” value was 2.61%. With `COc1ccc(-c2cc(C(=O)Nc3cc(C)ccc3O)no2)cc1` the “hERG current change (%, negative = inhibition) at 1uM” value was 12.9%. With `CCCCNc1ccccc1C(=O)OCC(=O)Nc1ccc(S(N)(=O)=O)cc1` the “hERG current change (%, negative = inhibition) at 1uM” value was 0.586%. `CCOc1ccc(-n2c(SCC(=O)Nc3ccc(Br)cc3)nc3n[nH]c(C)c3c2=N)cc1` was tested, and the “hERG current change (%, negative = inhibition) at 1uM” value was 11.8%. `c1ccc(CC2CCN(c3nc4ccccc4n4cnnc34)CC2)cc1` was tested, and the “hERG current change (%, negative = inhibition) at 1uM” value was 5.45%. With `CN(Cc1ccccc1)C(=O)CCC1CCN(C(=O)c2ccccc2C(F)(F)F)CC1` the “hERG current change (%, negative = inhibition) at 1uM” value was 12.3%. For `CCOC(=O)c1cc(-c2ccc(/C=C3/C(=O)NC(=O)C(C#N)=C3C)o2)ccc1Cl`, the “hERG current change (%, negative = inhibition) at 1uM” value was 11.1%. With `COc1ccc(CNC(=O)COC(=O)c2cnccn2)cc1` the “hERG current change (%, negative = inhibition) at 1uM” value was 11.7%. `Cc1ccc(S(=O)(=O)NC(N)=NCCc2ccccc2)cc1C` was tested, and the “hERG current change (%, negative = inhibition) at 1uM” value was -5.54%. With `CC1CN(C(=S)Nc2ccccc2F)CC(C)O1` (stereo not shown) the “hERG current change (%, negative = inhibition) at 1uM” value was 15.7%. For `CCc1noc(C)c1C(=O)Nc1ccc(C(F)(F)F)cc1`, the “hERG current change (%, negative = inhibition) at 1uM” value was -6.89%. `CN(C)c1cccc(NC(=O)CCc2ccccc2)c1` was tested, and the “hERG current change (%, negative = inhibition) at 1uM” value was 11%. For `CCc1ccc(-c2ccc(SCc3ccccn3)nn2)cc1`, the “hERG current change (%, negative = inhibition) at 1uM” value was 15.1%. For `CCC12CN3CCN(CC(C3)C1O)C2` (stereo not shown), the “hERG current change (%, negative = inhibition) at 1uM” value was -9.08%. With `O=C1COc2ccc(C(=O)CSc3nnc(Cc4cccs4)n3-c3ccc(Cl)cc3)cc2N1` the “hERG current change (%, negative = inhibition) at 1uM” value was -3.83%. For `O=C(NCCc1ccccn1)c1cccc(S(=O)(=O)N2CCCCCC2)c1`, the “hERG current change (%, negative = inhibition) at 1uM” value was -6.66%. `CCc1ccccc1N(CC(=O)NC(C)c1ccccc1)S(C)(=O)=O` (stereo not shown) was tested, and the “hERG current change (%, negative = inhibition) at 1uM” value was 16.4%. In the case of `CN1C2=NCCN2C(=O)c2ccccc21`, the “hERG current change (%, negative = inhibition) at 1uM” value was 0.514%. In the case of `O=C(C1=C(O)C(=O)N(CCN2CCOCC2)C1c1ccccc1)c1cccs1` (stereo not shown), the “hERG current change (%, negative = inhibition) at 1uM” value was 12.5%. `C=CCN1CCN(C(=O)c2cc3c(s2)CCC(CC)C3)CC1` (stereo not shown) was tested, and the “hERG current change (%, negative = inhibition) at 1uM” value was -2.2%. For `COC/C=C/C1=CC2=CC(=O)C(C)(OC(=O)c3cnc4ccccc4n3)C(=O)C2=CN1c1ccc(OC)cc1` (stereo not shown), the “hERG current change (%, negative = inhibition) at 1uM” value was 7.97%. For `Cn1cnc2cc(NC(=O)c3ccc(Cl)cc3)ccc21`, the “hERG current change (%, negative = inhibition) at 1uM” value was 4.19%. For `CCOC(=O)C1=C(C)NC(C)=C(C(=O)OCC)C1c1ccc([N+](=O)[O-])s1`, the “hERG current change (%, negative = inhibition) at 1uM” value was 10.4%.
